# Reference: PubChem BioAssay AID686971 (National Center for Advancing Translational Sciences (NCATS), 2013)
# The campaign covered roughly 360,000 compounds. About 7,500 (2.1%) were called active. Inconclusive results, whose numbers are uncertain, are shown with a selection of clear calls. Calls come from the whole dose curve; as a rule, active = well fitted cell-killing curve with a large enough effect; inconclusive = small, poorly fitted or top-dose-only effect, or effect the other way, or another doubt; inactive = no such curve, though single readings can be large or run the other way. Potencies of inconclusive entries are left out as doubtful fits.
# Assay: qHTS for induction of synthetic lethality in tumor cells producing 2HG: qHTS for the HT-1080-IDH1KD cell line;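 for activity, negative = toxicity: 0% = DMSO wells and -100% = cell-free medium wells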
# Conditions: HT-1080 IDH1 knockdown viability, ATP luminescence, 48 h; activity, negative = toxicity: at 46.1 µM (top of the series) unless noted
# In short: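 Cytotoxicity counter-line: IDH1KD HT-1080, 48 h, CellTiter-Glo. Curves classed by r2, magnitude and activity.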
# Potency is the fitted concentration of half-maximal effect; tags give direction and shape of the fitted curve.
SMILES,Potency,"activity, negative = toxicity"
CCC(C)c1ccc(O)c(NC(=S)NC(=O)c2cccs2)c1 (stereo not drawn),"inconclusive [cytotoxic, partial curve]",–
Oc1ccc2ccccc2c1C=NCc1cn2ccsc2n1,"inconclusive [cytotoxic, partial curve, poor fit]",–
O=C(CC1(O)C(=O)Nc2ccc(Br)cc21)c1ccccc1 (stereo not drawn),inactive,–
CCOC(=O)c1sc(NC(=O)CCN2CCCCCC2)c(C(=O)OCC)c1C,"inconclusive [cytotoxic, single point]",–
CCCc1[nH]nc2c1C(c1ccc(OC)c(CSC3=NCCS3)c1)C(C#N)=C(N)O2 (stereo not drawn),"inconclusive [cytotoxic, single point]",–
O=C(C1=C(O)C(=O)N(Cc2cccnc2)C1c1cccc(Oc2ccccc2)c1)c1ccco1 (stereo not drawn),"inconclusive [cytotoxic, single point]",–
Cc1ccc(C(=O)O/N=C(\N)Cc2ccc([N+](=O)[O-])cc2)c(Cl)c1,inactive,–
Cc1noc(C)c1NC(=O)N(C)C[C@H]1Oc2ccc(NC(=O)Nc3ccc(C(F)(F)F)cc3)cc2C(=O)N([C@H](C)CO)C[C@@H]1C,inactive,–
CCc1nc2c(OCCOc3ccc(F)cc3)cccn2c1N(C)C(=O)c1ccc(OC)cc1,inactive,–
Clc1ccc(CSc2nccn2Cc2ccccc2)cc1,inactive,–
COc1cc(OC)c2c(=O)c(OC)c(-c3ccc(OC)c(OC)c3)oc2c1,inactive,–
COc1ccccc1N1CCN(Cc2cc(Br)c(O)c3ncccc23)CC1,"inconclusive [cytotoxic, partial curve]",–
COC(=O)/C=C1\N/C(=N/c2nc(C)c3cc(OC)ccc3n2)NC1=O,"inconclusive [cytotoxic, partial curve]",–
CCOC(=O)c1c(NC(=O)c2nn(CC)cc2Br)sc(C)c1C,inactive,–
Cc1ccc(OCC(=O)N(Cc2ccco2)c2c(N)n(Cc3ccccc3)c(=O)[nH]c2=O)cc1C,inactive,–
Cc1ccc(N(C)S(=O)(=O)c2cccc(C(=O)Nc3ccc(N4CCOCC4)cc3)c2)cc1,inactive,–
FC(F)(F)c1cccc(-c2cncc(N3CCN(CCN4CCCC4)CC3)n2)c1,"inconclusive [cytotoxic, single point]",–
COc1cccc(-c2nnc(SCCC(=O)O)n2C)c1,inactive,–
O=C(Nc1cccc(C(F)(F)F)c1)N1CCC(c2nc(-c3ccc(F)cc3)no2)CC1,"inconclusive [cytotoxic, single point]",–
CCCCCNc1nc(N2CCCC2)c2c(c1C#N)CCN(C)C2,"inconclusive [cytotoxic, single point]",–
COc1cccc(N2CCN(C(=O)c3c(C)nn(-c4ccccc4)c3C)CC2)c1,inactive,–
COc1ccc(N=CC2=C(O)CCCC2=O)cc1,"inconclusive [cytotoxic, single point]",–
Cc1cc(/C=N\NC(=O)CC(=O)NC2CCCCC2)c(C)n1-c1ccc(Cl)cc1,"inconclusive [cytotoxic, partial curve]",–
CCS(=O)(=O)c1c([N+](=O)[O-])ncn1C,"inconclusive [cytotoxic, single point]",–
Cc1cccc(CN2CCN(CC(=O)NCCCN3CCCC3=O)C2=O)c1,inactive,–

SMILES,Potency,"activity, negative = toxicity"
CCn1c(=O)cc(C(=O)OC)sc1=Nc1ccc(F)c(F)c1,"inconclusive [cytotoxic, single point]",–
CCc1nnc(NC(=O)C2Cc3ccccc3CN2S(=O)(=O)c2c(C)c(C)cc(C)c2C)s1 (stereo not drawn),"inconclusive [cytotoxic, single point]",–
O=C(O)Cc1sc(Nc2ccc(F)cc2)nc1-c1cccs1,inactive,–
COc1cc2[nH]c3c(=O)n4c(nc3c2cc1OC)SCCC4,active: 7.31 µM,–
O=S(=O)(Nc1nc2ccccc2s1)c1cnc(Cl)c(Br)c1,inactive,–
CCN(CC)CCCN(C(=O)c1ccccc1F)c1nc(-c2ccc(OC)cc2)cs1,"inconclusive [cytotoxic, single point]",–
COc1ccc(C(=O)c2ccc3oc(-c4ccc(OC)cc4)c(-c4ccc(O)cc4)c3c2)cc1,inactive,–
COc1cc(-c2cnc3c(NC=O)cc(-c4cccnc4)cn23)cc(OC)c1OC,"inconclusive [cytotoxic, full curve]",–
O=C1NC[C@H](CCCCN2CCN(CCC3CCCCC3)C(=O)C2=O)N(CCc2ccccc2)C1=O,"inconclusive [rising, single point]",–
O=C(Nc1nnc(-c2ccccc2Cl)o1)c1ccco1,"inconclusive [cytotoxic, single point]",–
O=C(NCc1ccccc1Cl)c1ccc(CS(=O)(=O)c2ccccc2)o1,inactive,–
Cc1ccc(Cl)cc1NC(=O)NCCN1CCCCC1,inactive,–
COc1ccc(F)cc1CN1CCN(c2ncnc3scc(-c4ccccc4)c23)CC1,"inconclusive [cytotoxic, single point]",–
Cc1ccc(NC(=O)CN2C(=O)C3CC=C(Cl)CC3C2=O)cc1 (stereo not drawn),inactive,–
N#Cc1c(N2CCCCC2)nc(N)c2c(N)nc3c(c12)CC(CCl)O3 (stereo not drawn),"inconclusive [cytotoxic, partial curve]",–
O=C(Nc1cccc(Cl)c1Cl)c1ccc(-c2ccccc2)cc1,"inconclusive [cytotoxic, single point]",–
CCn1nc(C)c(/C=N/NC(=S)Nc2ccc(Cl)cc2Cl)c1C,–,inconclusive: -30.2% [cytotoxic]
O=Cc1c(Sc2ccccc2)nc2ccccn2c1=O,"inconclusive [cytotoxic, single point]",–
Cc1ccc2c(Cl)c(Cc3ccccc3)c(=S)[nH]c2n1,inactive,–
O=C(CCN1C(=O)/C(=C/c2cccs2)SC1=S)Nc1ccc(O)cc1,"inconclusive [cytotoxic, partial curve]",–
CCOc1cc(-c2c(C#N)c(N)nc3c2CCCC3C)ccc1O (stereo not drawn),"inconclusive [cytotoxic, single point]",–
CCCCOc1ccc(/C=C/C2=CC(C)(C)NC(=S)N2)cc1OCC,"inconclusive [cytotoxic, partial curve]",–
CCCCNC(=O)C(=O)N/N=C/c1ccc(OCC(=O)Nc2cccc(OC)c2)c(OC)c1,"inconclusive [cytotoxic, single point]",–
COc1cccc(-c2cnc3c(NC=O)cc(-c4ccccc4)cn23)c1,active: 2.59 µM,–
Cc1cc(C)c(C#N)c(OCC(=O)c2ccc(Br)cc2)n1,"inconclusive [cytotoxic, single point]",–

SMILES,Potency,"activity, negative = toxicity"
CN1c2cccc3cccc(c23)N(C)C1(C)C,inactive,–
CN(Cc1ccccc1)C1=CC(=[N+]2CCCCC2)CC(C)(C)C1,"inconclusive [cytotoxic, partial curve]",–
CC(C)(C)C(=O)NC(=S)NNC(=O)c1ccc(-c2ccccc2)cc1,active: 7.31 µM,–
N#CC1=C(N)N2C(=C(C#N)C1c1cccc(Br)c1)Nc1ccccc12 (stereo not drawn),"inconclusive [cytotoxic, full curve, poor fit]",–
CCOC(=O)c1c(C)[nH]c(C(=O)OCC(=O)NCc2ccc(OC)c(OC)c2)c1C,"inconclusive [cytotoxic, partial curve]",–
COc1cc(/C=C2\C(=O)ON=C2c2ccccc2)cc(Br)c1O,"inconclusive [cytotoxic, single point]",–
CC(C)Cn1c(-c2cccs2)nc2ccccc21,inactive,–
Cc1ccc2nc(-c3ccccn3)[nH]c2c1,active: 18.4 µM,–
O=C(c1ccccc1)N1CCN(c2ccc(Cl)cc2)CC1,inactive,–
CC1=NN(c2nc(-c3ccc(C)cc3)cs2)C(=O)C1N=Nc1ccccc1O (stereo not drawn),"inconclusive [cytotoxic, partial curve, poor fit]",–
OC(c1ccccc1)(c1nc(/C=C/c2ccccc2)cs1)C(F)(F)F (stereo not drawn),"inconclusive [cytotoxic, single point]",–
CCOc1ccc(C(=O)COC(=O)c2c(-c3ccccc3)noc2C)cc1,"inconclusive [cytotoxic, single point]",–
CSc1ccc(CN2CCCC(N3CCN(c4ccccc4)CC3)C2)cc1 (stereo not drawn),inactive,–
CC(=O)c1cccc(-c2ccnc3c2CC(C(=O)NCc2cccs2)O3)c1 (stereo not drawn),"inconclusive [cytotoxic, full curve]",–
CCN1/C(=C/c2sc(-c3ccccc3C)c[n+]2C)Sc2ccccc21,active: 2.06 µM,–
CCc1c(C)sc(NC(=O)CC#N)c1C#N,"inconclusive [cytotoxic, single point]",–
O=C(/C=C/c1ccc(S(=O)(=O)N2CCOCC2)cc1)NCc1ccccc1F,inactive,–
COc1ccccc1-c1cc(NC(C)=O)c2ncc(-c3cccc(C(C)=O)c3)n2c1,"inconclusive [cytotoxic, single point]",–
COc1ccc2nc(NC(=O)c3cccc(OCc4c(C)noc4C)c3)sc2c1,"inconclusive [cytotoxic, full curve]",–
CC(=O)Nc1ccc(S(=O)(=O)N(C)CC(=O)OCCOc2cccc(C)c2)cc1,inactive,–
Cc1ccc(NC(=O)CN2C(=O)CSc3ccc(S(=O)(=O)N4CCCCC4)cc32)cc1,"inconclusive [cytotoxic, partial curve]",–
O=C(NN=C1CCCCC1)Nc1ccccc1Cl,"inconclusive [cytotoxic, single point]",–
CC(C)(C)c1ccc(Cc2n[nH]c(=S)[nH]c2=O)cc1,inactive,–
